Experimental data reported in PubChem BioAssay AID1460 (National Center for Advancing Translational Sciences (NCATS), 2008).
Hit rate of the full screen: of about 270,000 compounds, about 5,800 (2.1%) were called active. This list was built around the results that the source calls inconclusive (neither active nor inactive); the mix of calls is not that of the screen. Calls come from the whole dose curve; as a rule, active = well fitted inhibition curve with a large enough effect; inconclusive = small, poorly fitted or top-dose-only effect; inactive = flat fitted curve, though single readings scatter. A potency beside an inconclusive call is a rough fit, not a confirmed value.
Note: nearly all actives have a fitted effect of over 55% in size.
Potency is the fitted concentration of half-maximal effect; tags give direction and shape of the fitted curve.

These molecules were tested against Microtubule-associated protein tau (Homo sapiens) (UniProt P10636) (assay: qHTS for Inhibitors of Tau Fibril Formation, Thioflavin T Binding). Conditions: recombinant tau K18 P301L (four-repeat tau fragment), heparin-induced fibrillization, ThT fluorescence; series mostly up to 57.4 µM.
Sequence of UniProt P10636 (P10636 whole entry, looked up, the tested form may be a part): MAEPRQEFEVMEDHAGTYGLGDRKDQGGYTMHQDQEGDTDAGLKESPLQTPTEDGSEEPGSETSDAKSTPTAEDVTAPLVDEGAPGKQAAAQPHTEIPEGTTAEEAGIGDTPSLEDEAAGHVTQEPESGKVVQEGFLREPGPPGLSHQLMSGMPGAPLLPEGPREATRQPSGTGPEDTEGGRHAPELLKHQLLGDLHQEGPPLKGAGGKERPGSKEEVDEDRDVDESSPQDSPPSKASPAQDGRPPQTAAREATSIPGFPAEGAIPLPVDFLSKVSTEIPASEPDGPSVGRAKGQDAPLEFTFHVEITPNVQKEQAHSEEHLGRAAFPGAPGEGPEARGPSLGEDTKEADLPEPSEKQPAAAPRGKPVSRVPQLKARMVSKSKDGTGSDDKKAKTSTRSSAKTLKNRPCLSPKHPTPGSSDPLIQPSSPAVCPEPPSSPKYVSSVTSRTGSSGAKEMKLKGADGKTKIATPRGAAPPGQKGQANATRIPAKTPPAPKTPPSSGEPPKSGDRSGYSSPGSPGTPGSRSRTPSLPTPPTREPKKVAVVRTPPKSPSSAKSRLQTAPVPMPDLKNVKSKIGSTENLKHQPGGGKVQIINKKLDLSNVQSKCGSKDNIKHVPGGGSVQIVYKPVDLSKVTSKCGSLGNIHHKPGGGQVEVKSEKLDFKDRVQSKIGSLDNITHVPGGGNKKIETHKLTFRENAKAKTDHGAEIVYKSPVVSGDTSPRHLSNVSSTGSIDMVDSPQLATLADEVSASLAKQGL
Summary of the method: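 Tau K18 P301L fragment (15 uM unlabeled plus 0.24 uM Alexa 594-labeled) in 100 mM sodium acetate pH 7 with compound, fibrillization induced by 20 uM heparin for 6 hr at 37 C. Thioflavin T (30 uM) added, fluorescence read after 1 hr (ex 450, em 510 nm).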
In the case of `CCOC(=O)c1cnc2c(C)c(-c3ccccc3)[nH]n2c1=O`, the Potency is reported as inconclusive: 15.8 µM [inhibitor, partial curve].
For `COc1ccc(Cn2c(SCc3ccc(C(=O)NC4CCCC4)cc3)nc3cccnc32)cc1`, the Potency was “inactive”.
`CCN1CC=C2C(C#N)=C(N)C(C#N)(C#N)[C@H](c3cccc(OC)c3OC)[C@H]2C1` was tested, and the Potency was inconclusive: 17.8 µM [inhibitor, partial curve].
For `O=C(COc1ccccc1)Nc1ccc2[nH]c(=O)[nH]c2c1`, the Potency was inconclusive: 31.6 µM [inhibitor, partial curve].
`Cc1ccc(NC(=O)c2ccc(NCCN)c([N+](=O)[O-])c2)cc1Cl` was tested, and the Potency was active: 12.6 µM.
In the case of `Cc1ccc(/C=C2/C(=O)ON=C2c2ccccc2)o1`, the Potency is reported as inconclusive: 12.6 µM [inhibitor, partial curve, poor fit].
For `C=CCn1c(SCc2csc(C)n2)nc2sc3c(c2c1=O)CCCCC3`, the Potency was inconclusive: 22.4 µM [inhibitor, partial curve, poor fit].
`CC(=O)NC(c1ccc(C)cc1)c1cc([N+](=O)[O-])c2cccnc2c1O` (stereo not given) was tested, and the Potency was inconclusive: 17.8 µM [inhibitor, partial curve].
With `CC(=O)N1CCN(C(=O)CSc2nc3c(cnn3-c3ccccc3)c(=O)[nH]2)CC1` the Potency was “inactive”.
For `Cc1ccc(NC(=O)c2ccc(NC(=O)N3CCSc4nc(C)cc(C)c43)cc2)c(Cl)c1`, the Potency was “inactive”.
For `O=C(NCc1ccco1)C1CCCN(S(=O)(=O)c2ccccc2)C1` (stereo not given), the Potency was “inactive”.
For `Cc1cccc(C(c2sc3nc(-c4ccco4)nn3c2O)N2CCN(c3ccccc3)CC2)c1` (stereo not given), the Potency was inconclusive: 25.1 µM [inhibitor, single point].
`COc1ccc(/C(N)=N/OC(=O)c2ccc3c(c2)OCO3)cc1` was tested, and the Potency was inconclusive: 1.78 µM [inhibitor, full curve].
In the case of `O=C(c1ccco1)[C@@H]1[C@@H]2C(=O)N(c3ccc(F)cc3)C(=O)[C@@H]2[C@H]2C=Cc3ccccc3N21`, the Potency is reported as active: 14.1 µM.
`COc1ccc(C[C@H]2CN3C(=NC[C@@H]3Cc3ccc(O)cc3)N2CCNC(=O)c2ccc(C)c(Br)c2)cc1` was tested, and the Potency was “inactive”.
In the case of `COc1ccc2cc(C(N)=O)c(=Nc3ccc(C)cc3)oc2c1`, the Potency is reported as inconclusive: 15.8 µM [inhibitor, partial curve].
For `CCCC(=O)Nc1ccc(Nc2ccccc2)cc1`, the Potency was inconclusive: 10 µM [inhibitor, partial curve].
`CC1CC(=O)N(c2ccc(NCc3ccccc3Cl)c([N+](=O)[O-])c2)C1=O` (stereo not given) was tested, and the Potency was inconclusive: 15.8 µM [inhibitor, partial curve].
In the case of `O=C(N/N=C/C=C/c1ccccc1)c1cccc(Br)c1`, the Potency is reported as inconclusive: 3.16 µM [inhibitor, partial curve].
With `CCOC(=O)C1=C(C)N(C)C(C)=C(C(=O)OCC)C1c1ccsc1` the Potency was “inactive”.
With `C=CCCC(=O)Nc1nc(C)c(-c2csc(Nc3cccc(OC)c3)n2)s1` the Potency was active: 14.1 µM.
For `Cc1ccc(C)c(SCC(=O)NCc2ccco2)c1`, the Potency was “inactive”.
With `CC1CC(=O)N(c2ccc(NCCc3ccc(O)cc3)c([N+](=O)[O-])c2)C1=O` (stereo not given) the Potency was inconclusive: 22.4 µM [inhibitor, partial curve].
With `COc1cc2c(cc1OC)CN(Cc1cc(=O)oc3cc(C)c(Cl)cc13)CC2` the Potency was inconclusive: 10 µM [inhibitor, partial curve].
For `COc1ccc(CCNC(=O)CSc2nnc(Cn3c(=O)sc4ccccc43)n2C)cc1OC`, the Potency was “inactive”.
In the case of `COc1ccc(-c2noc(CCC(N)=O)n2)cc1OC`, the Potency is reported as “inactive”.
With `COc1ccccc1C(=O)O/N=C1/CCCc2c1ccc(OC)c2[N+](=O)[O-]` the Potency was inconclusive: 2.24 µM [inhibitor, full curve].
`COc1nc(-c2ccccc2)cc(-c2ccccc2)n1` was tested, and the Potency was inconclusive: 22.4 µM [inhibitor, single point].
With `COc1cc2c(cc1OC)CN(CC(=O)Nc1ccccc1SC)CC2` the Potency was inconclusive: 12.6 µM [inhibitor, partial curve].
For `CCCc1ccc(C2Sc3ccccc3NC3=C2C(=O)c2ccccc23)cc1` (stereo not given), the Potency was inconclusive: 20 µM [inhibitor, partial curve].
With `COc1ccc(N=C2SC(CC(=O)Nc3ccccc3)C(=O)N2Cc2ccco2)cc1` (stereo not given) the Potency was “inactive”.
For `CCOC(=O)CNS(=O)(=O)c1cc(-c2nnc(Nc3cccc(O)c3)c3ccccc23)ccc1C`, the Potency was inconclusive: 0.447 µM [inhibitor, partial curve].
`Cc1cccc(C)c1NC1=NC(=S)N(c2ccc(C(=O)O)cc2)C12CCCCC2` was tested, and the Potency was “inactive”.
With `C/C(CC(=O)Nc1ccccn1)=N\NC(=O)C(=O)Nc1ccccc1C` the Potency was inconclusive: 10 µM [inhibitor, partial curve].
`CCOC(=O)C1C(c2cc(OC)c(O)c(OC)c2)NC(=S)NC1(O)C(F)(F)F` (stereo not given) was tested, and the Potency was “inactive”.
In the case of `CCOC(=O)C1=C(C)N=c2s/c(=C\c3ccc(OC(C)=O)c(OCC)c3)c(=O)n2C1/C=C/c1ccccc1` (stereo not given), the Potency is reported as inconclusive: 11.2 µM [inhibitor, partial curve].
For `Cc1ccc(-c2noc(CCC(=O)N3CCN(c4cccc(C(F)(F)F)c4)CC3)n2)cc1`, the Potency was inconclusive: 14.1 µM [inhibitor, partial curve].
For `CC1CC2=C(NC(=S)NC2c2ccccc2F)/C(=C/c2ccccc2F)C1` (stereo not given), the Potency was “inactive”.
For `COc1ccc(NC(=S)NC(=O)CC(C)C)c(OC)c1`, the Potency was “inactive”.
In the case of `COCCCNC(=O)c1c[nH]c2ccc(S(=O)(=O)N3CCC(C)CC3)cc2c1=O`, the Potency is reported as “inactive”.
With `COC(=O)c1oc2c(c1C)C1(CCC2)SCCS1` the Potency was inconclusive: 31.6 µM [inhibitor, single point].
For `CS(=O)(=O)N1CCN(c2ccccc2NC(=S)NC(=O)c2ccccc2[N+](=O)[O-])CC1`, the Potency was “inactive”.
In the case of `COc1cc(C2c3c([nH]c(=O)[nH]c3=O)Nc3ccc4ccccc4c32)ccc1O` (stereo not given), the Potency is reported as inconclusive: 28.2 µM [inhibitor, partial curve].
For `CCN(c1ccccc1)S(=O)(=O)c1nnc(NC(=O)c2cccs2)s1`, the Potency was active: 2.24 µM.
With `CCN(CC)c1ccc(/C=C(\C#N)C(=O)NCc2ccco2)cc1` the Potency was inconclusive: 7.94 µM [inhibitor, partial curve].
For `Cc1ccc(C)c(Nc2nnc(-n3nc(C)cc3C)c3ccccc23)c1`, the Potency was “inactive”.
For `CCOc1ccc(-n2c(SCC(=O)N3CCOCC3)nc3c([nH]c4ccccc43)c2=O)cc1`, the Potency was “inactive”.
`CC(=O)c1ccc(S(=O)(=O)Nc2cccc(-c3ccc(N4CCCCCC4)nn3)c2)cc1` was tested, and the Potency was “inactive”.
In the case of `CCCC(=O)N1CCN(c2nc3c(OC)ccc(C)c3s2)CC1`, the Potency is reported as inconclusive: 2 µM [inhibitor, full curve, poor fit].
With `COc1cc(/C=C/C(=O)c2cccc([N+](=O)[O-])c2)cc(OC)c1OC` the Potency was inconclusive: 14.1 µM [inhibitor, partial curve].
For `CN(C)CC(C(=O)c1ccccc1)c1ccccc1` (stereo not given), the Potency was inconclusive: 12.6 µM [inhibitor, partial curve, poor fit].
`COc1cc(C(=O)Nc2ccc3nc(SCc4ccc(C)cc4)sc3c2)cc(OC)c1OC` was tested, and the Potency was inconclusive: 1.12 µM [inhibitor, full curve, poor fit].
In the case of `O=C(O)/C=C/c1ccc([N+](=O)[O-])o1`, the Potency is reported as “inactive”.
With `Nc1nc(-c2ccccc2)c(N=Nc2cccc3ccccc23)s1` the Potency was active: 2.82 µM.
For `CN(C)c1ccc(C(c2nnnn2C(C)(C)C)N2CCN(C(=O)c3ccco3)CC2)cc1` (stereo not given), the Potency was active: 15.8 µM.
For `COc1ccc(C2=NOC(C(=O)Nc3ccc(C(C)=O)cc3)C2)cc1OC` (stereo not given), the Potency was inconclusive: 11.2 µM [inhibitor, partial curve].
With `Cc1ccc(C(C)C)cc1OCC(=O)N/N=C/c1ccc2c(c1)OCCO2` the Potency was inconclusive: 12.6 µM [inhibitor, partial curve].
With `Cn1nnnc1Sc1ncnc2scc(-c3ccc(F)cc3)c12` the Potency was inconclusive: 39.8 µM [inhibitor, single point].
`CC(=O)c1ccc(NC(=O)CCSc2nc(-c3ccco3)cc(C(F)(F)F)n2)cc1` was tested, and the Potency was inconclusive: 22.4 µM [inhibitor, partial curve].
For `Cc1cc2cc(CN(Cc3nnnn3C3CCCCC3)CC3CCCO3)c(=O)[nH]c2cc1C` (stereo not given), the Potency was “inactive”.
In the case of `O=C(NC1CC(=O)N(c2cccc(F)c2)C1)c1ccc(Br)o1` (stereo not given), the Potency is reported as “inactive”.
`CCCCCc1nnc(NC(=O)C2COc3ccccc3O2)s1` (stereo not given) was tested, and the Potency was inconclusive: 1.41 µM [inhibitor, partial curve, poor fit].
For `Cc1nc(NC(=O)CSc2ccc(-c3nc4ccccc4[nH]3)cn2)sc1C`, the Potency was inconclusive: 5.01 µM [inhibitor, full curve].
For `Nc1ccc(-c2nc3ccccc3[nH]2)cc1`, the Potency was inconclusive: 25.1 µM [inhibitor, partial curve, poor fit].
For `CC1CCN(c2nc3c(c(=O)n(C)c(=O)n3C)n2CCSc2nc3ccccc3o2)CC1`, the Potency was “inactive”.
In the case of `O=C(O)c1cc(-n2c(/C=C\c3ccc(F)cc3)nc3ccccc3c2=O)ccc1Cl`, the Potency is reported as “inactive”.
In the case of `COc1ccc(-c2nnc(SCc3nc4ccccc4s3)n2C(C)C)cc1`, the Potency is reported as inconclusive: 20 µM [inhibitor, partial curve].
With `CCc1nn(CC(=O)NCCCN(CC)c2cccc(C)c2)c(=O)c2cc3occc3n12` the Potency was inconclusive: 20 µM [inhibitor, partial curve].
With `Cc1ccc(Nc2nc(-c3sc(NC(=O)c4ccccc4)nc3C)cs2)cc1` the Potency was inconclusive: 7.08 µM [inhibitor, partial curve].
In the case of `O=C(Nc1c(Cl)cccc1Cl)c1cc(-c2ccc3c(c2)OCO3)on1`, the Potency is reported as inconclusive: 3.55 µM [inhibitor, full curve].
